Laboratory results as given in paper PMC4336329 (PLoS ONE, 2015).
Out of some 310,000 compounds screened, about 2,200 (0.71%) showed an effect of 50% or more. The effect is printed as a negative number. Some of the results follow.

molecular target: human ether-à-go-go-related gene (hERG) potassium channel (human, UniProt Q12809); experiment: primary screen, population patch clamp on CHO cells stably expressing hERG
Sequence (Q12809 whole entry, looked up): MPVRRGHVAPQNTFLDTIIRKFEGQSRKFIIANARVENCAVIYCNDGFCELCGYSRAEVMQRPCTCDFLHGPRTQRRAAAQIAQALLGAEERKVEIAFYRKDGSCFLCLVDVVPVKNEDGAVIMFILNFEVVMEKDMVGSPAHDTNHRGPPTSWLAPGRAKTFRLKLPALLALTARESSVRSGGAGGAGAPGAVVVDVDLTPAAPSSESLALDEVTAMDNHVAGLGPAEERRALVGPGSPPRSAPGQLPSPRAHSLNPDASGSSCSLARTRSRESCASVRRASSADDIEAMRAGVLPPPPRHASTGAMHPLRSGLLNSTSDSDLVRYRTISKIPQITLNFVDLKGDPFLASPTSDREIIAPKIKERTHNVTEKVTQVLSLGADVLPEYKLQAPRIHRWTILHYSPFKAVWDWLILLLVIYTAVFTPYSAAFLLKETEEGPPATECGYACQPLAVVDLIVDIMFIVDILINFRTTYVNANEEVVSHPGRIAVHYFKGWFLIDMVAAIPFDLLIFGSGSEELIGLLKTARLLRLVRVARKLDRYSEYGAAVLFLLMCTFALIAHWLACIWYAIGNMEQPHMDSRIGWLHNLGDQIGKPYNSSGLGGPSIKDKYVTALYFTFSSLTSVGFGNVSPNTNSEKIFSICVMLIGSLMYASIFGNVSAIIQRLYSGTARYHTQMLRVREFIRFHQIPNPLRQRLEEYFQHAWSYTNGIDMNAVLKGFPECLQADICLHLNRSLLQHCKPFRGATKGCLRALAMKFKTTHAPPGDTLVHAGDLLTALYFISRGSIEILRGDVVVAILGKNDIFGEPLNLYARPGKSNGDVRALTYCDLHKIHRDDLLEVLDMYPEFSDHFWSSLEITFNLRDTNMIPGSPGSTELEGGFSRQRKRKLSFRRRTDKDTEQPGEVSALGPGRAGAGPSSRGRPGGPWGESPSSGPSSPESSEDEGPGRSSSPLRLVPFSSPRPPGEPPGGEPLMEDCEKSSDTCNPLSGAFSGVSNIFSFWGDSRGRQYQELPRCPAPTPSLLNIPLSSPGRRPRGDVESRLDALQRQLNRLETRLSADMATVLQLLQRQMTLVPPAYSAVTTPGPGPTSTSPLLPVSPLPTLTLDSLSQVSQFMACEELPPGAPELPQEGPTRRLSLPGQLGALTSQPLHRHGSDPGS

| Compound | hERG current change (%, negative = inhibition) at 1uM [%] |
| --- | --- |
| Cc1cc(F)ccc1NC(=O)C1CCCO1 (centres unmarked) | 9.7 |
| Cc1ccccc1-c1nc(CS(=O)CC(=O)N2CCC3(CC2)OCCO3)c(C)o1 (centres unmarked) | -1.03 |
| CCOc1ccc(S(=O)(=O)NCCC(=O)N(C)CC(=O)Nc2ccc(N3CCOCC3)cc2)cc1 | 8.64 |
| Cn1c(=O)oc2cc(S(=O)(=O)N3CCCC(C(=O)NCCN4CCOCC4)C3)ccc21 (centres unmarked) | 9.37 |
| O=C1C=C(Nc2ccccc2C(=O)O)c2ccccc2C1=O | 13.9 |
| Cc1nnc(NC(=O)CCn2cnc3ccccc3c2=O)s1 | 13.7 |
| CC1CCCN(CCCNS(=O)(=O)c2ccc3c(c2)CCN3C(=O)C2CC2)C1 (centres unmarked) | 11.8 |
| NC(=O)c1ccc(NC(=O)CCC(=O)c2cccs2)cc1 | 9.21 |
| C1CSC2(N1)C1CC3CC2CC(C1)C31NCCS1.Cl (centres unmarked) | 9.84 |
| COc1ccc(NC(=O)COC(=O)CCCC2=NS(=O)(=O)c3ccccc3N2)cc1Cl | 10.3 |
| Cc1nn(C)cc1S(=O)(=O)N1CCN(c2ccc(F)cc2)CC1 | 4.55 |
| CC(=O)Nc1ccc(OCC(O)Cn2cnc3ccccc32)cc1 (centres unmarked) | 14.2 |
| O=C(NCc1n[nH]c(=S)n1-c1ccccc1)c1ccc(S(=O)(=O)N2CCOCC2)cc1 | 1.75 |
| COc1ccc(C(C)NC(=S)NC2CCCCC2)cc1OC (centres unmarked) | 11.8 |
| O=C(c1ccc(-n2cnnn2)cc1)N1CCN(C(c2ccccc2)c2ccccc2)CC1 | -5.72 |
| CCc1ccccc1N(CC)C(=O)c1cn(C)c(=O)c2cc(OC)c(OC)cc12 | 13.4 |
| CCCCC(=O)Nc1cccc(NC(=O)CC)c1 | 10.3 |
| Cc1ccc(C)c(NC(=O)COC(=O)CSc2ccccc2)c1 | 5.01 |
| CCN(CC(=O)NCc1cccs1)CC(=O)Nc1ccccc1C | 4.48 |
| COc1cc(NC(=O)[C@@H](NC(=O)c2ccco2)C(C)C)c(OC)cc1NC(=O)c1ccccc1 | -6.51 |
| O=C(O)C1CCN(S(=O)(=O)c2ccc(N3CCOCC3)c([N+](=O)[O-])c2)CC1 | 10.6 |
| O=C1CC(C(=O)Nc2cccc3ccccc23)C2(CCCC2)O1 (centres unmarked) | 13.5 |

| Compound | hERG current change (%, negative = inhibition) at 1uM [%] |
| --- | --- |
| O=C(Nc1ccccc1)C1CCN(S(=O)(=O)c2cccs2)CC1 | 1.37 |
| Cc1ccc(F)cc1NC(=O)C1CCCN(c2ncccn2)C1 (centres unmarked) | -9.93 |
| COc1ccc(S(=O)(=O)CC(O)CN2CCCC2=O)cc1 (centres unmarked) | 21.4 |
| COC(=O)C1=C(C)NC(C)=C(C(=O)OCC2CCCO2)C1c1cccc(Br)c1 (centres unmarked) | 7.88 |
| CC1(CCl)N([O-])C2=C(CCCC2)[N+]1=O (centres unmarked) | 12.6 |
| CCOc1ccc(S(=O)(=O)NCCC(=O)OCN2C(=O)c3ccccc3C2=O)cc1 | -4.53 |
| N#Cc1c(C(F)(F)F)cc(C2CC2)[nH]c1=O | 13.9 |
| COC(=O)C(NC(=O)C(C)Oc1ccccc1)C(C)C (centres unmarked) | 6.48 |
| Cn1cccc1P(=O)(c1cccn1C)c1cccn1C | 12.9 |
| CCOc1ccc(NC(=O)C2CCCN(S(=O)(=O)c3ccc4[nH]c(=O)ccc4c3)C2)cc1 (centres unmarked) | 7.97 |
| Cc1ccc(-c2cc(C(=O)N3CCOCC3)c3cc(C)ccc3n2)cc1 | 9.61 |
| Cc1ccc(NC(=O)C(=O)NC(C)C2COc3ccccc3O2)cc1 (centres unmarked) | 16 |
| C/C(CCN1CCCCc2nc(C)c(C)cc21)=N\O[C@H](C)c1cn([C@H](CO)Cc2ccccc2)nn1 | -16.7 |
| CSCCC(NC(=O)c1ccc(Cl)cc1)C(=O)NC(C)(C)C (centres unmarked) | 10.5 |
| O=C(Nc1cccc(C(F)(F)F)c1)Oc1ccc(Cl)c2cccnc12 | 13.6 |
| Cc1ccc(N2C(=O)C3N=NN(CC(=O)N4N=C(c5cccc6ccccc56)CC4c4ccccc4)C3C2=O)cc1 (centres unmarked) | 8.17 |
| CCc1ccccc1S(=O)(=O)Cc1ccc(C(=O)NCC2CCCO2)o1 (centres unmarked) | -3.3 |
| COC(=O)c1cccc(NC(=S)Nc2cc(Cl)ccc2OC)c1 | 11.7 |
| CC(C)CNS(=O)(=O)c1cc(C(=O)OC2CCOC2=O)c(Cl)cc1Cl (centres unmarked) | 10.5 |
| CCc1ccc(Nc2n[n+](-c3ccccc3)c(-c3ccc(OC)c(Br)c3)s2)cc1.[Cl-] | 10.1 |
| Cc1cc(/C=C2\C(=O)NC(=O)N(c3ccccc3F)C2=O)c(C)n1-c1cc(C(=O)O)cc(C(=O)O)c1 | 10.6 |
| Cc1cc(C)c2nc(SC(C)C(=O)NCC(=O)Nc3ccc(F)c(F)c3F)cc(C)c2c1 (centres unmarked) | 14.8 |

| Compound | hERG current change (%, negative = inhibition) at 1uM [%] |
| --- | --- |
| COCCN(C(=O)COC(=O)c1ccco1)c1c(N)n(Cc2ccccc2)c(=O)[nH]c1=O | 1.95 |
| COc1cc2c(cc1OC)C(c1cc3cc(OC)c(OC)cc3[nH]c1=O)N(C(=O)C1CC1)CC2 (centres unmarked) | 12.9 |
| CC(=O)Nc1ccc(N/C=C/C(=O)c2ccc(Cl)cc2)cc1 | 14.3 |
| CCOC(=O)CNS(=O)(=O)c1ccc(S(=O)(=O)NC2CC2)cc1 | 13.9 |
| c1ccc(CSc2nnc3c4ccccc4c4ccccc4c3n2)cc1 | 11.7 |
| COc1ccc(-n2cnc3cc(NC(=O)c4ccco4)ccc32)cc1 | -6.01 |
| CC(=O)Nc1ccc(Nc2cc(C)nc3c(-c4ccc(Cl)cc4)cnn23)cc1 | 8.99 |
| CCCCNC(=O)C1CCN(S(=O)(=O)N2CCCCCC2)CC1 | -0.918 |
| Cc1ccc(-c2cccc(NC(=O)C3C(C(=O)O)[C@@H]4C=C[C@H]3C4)c2)o1 (some centres unmarked) | 5.51 |
| Cc1cc(C(=O)NC2CC(C)(C)Cc3c2cnn3-c2ccc(F)cc2)nn1C (centres unmarked) | 5.91 |
| N#Cc1c(CSCC(=O)O)cc(=O)n2c1[nH]c1ccccc12 | 16.8 |
| NC(=O)CSc1nnc(-c2ccccc2)c(-c2ccccc2)n1 | 11.3 |
| O=C(CCSCc1ccccc1F)NCc1cccs1 | 4.18 |
| COCCn1c(-c2ccsc2)nc2c1c(=O)[nH]c(=O)n2CC(C)C | 1.56 |
| Cc1ccc(-c2nc3cnccn3c2Nc2ccc3c(c2)OCO3)o1 | -8.81 |
| OC(c1ccc(F)cc1)(c1ccc(F)cc1)[C@@H]1CCCN1 | 4.39 |
| COc1ccc(C2CC(c3ccc(Cl)cc3Cl)Nc3nc(N)nn32)cc1 (centres unmarked) | -5.3 |
| CCC(OC(=O)c1nsc(Cl)c1Cl)C(=O)NCC1CCCO1 (centres unmarked) | 11.5 |
| COc1ccc(CN(Cc2ccc(C(=O)O)cc2)C(=S)Nc2cccc(C)c2)cc1OC | 21 |
| CCCc1nc2ccccc2c(C(=O)OCC(=O)Nc2c(C)n(C)n(-c3ccccc3)c2=O)c1CC | 6.45 |
| O=C(NCc1ccc2c(c1)OCO2)c1c(O)nc2sccn2c1=O | 16.8 |
| CC(=O)c1ccc([N+](=O)[O-])c(CS(=O)(=O)c2ccccc2)c1 | 16.3 |

| Compound | hERG current change (%, negative = inhibition) at 1uM [%] |
| --- | --- |
| OC(Cn1cncn1)(c1ccc(F)cc1)c1ccc(Cl)cc1 (centres unmarked) | 13.9 |
| COc1ccc(C2OC(=O)CC2C(=O)N2CCN(c3cc(Cl)ccc3C)CC2)cc1OC (centres unmarked) | 7.68 |
| COc1ccc(/C=N/NC(=O)CCc2c(C)n[nH]c2C)cc1OC | 16 |
| CC(=O)[O-].[K+].c1ccc2c(c1)OCCOCCOc1ccccc1OCCOCCO2 | -80.7 |
| COc1ccccc1C(=O)NC(CCSC)C(=O)OCC(=O)NC(=O)NCc1ccco1 (centres unmarked) | 2.81 |
| CC(Nc1ccc(Br)cc1)C(=O)N/N=C/c1ccccc1OCc1ccccc1 (centres unmarked) | 8.25 |
| CCOc1ccc(NC(=O)COC(=O)Cc2ccc(S(=O)(=O)N3CCOCC3)s2)cc1 | 2.84 |
| C=CCn1c(Cc2ccccc2)nc2c(cnn2-c2ccccc2)c1=O | -11.9 |
| O=C(NCc1ccco1)c1ccc(C(F)(F)F)cc1 | 13.5 |
| Cc1cc(C)c(C#N)c(Sc2ccc(N)cc2)n1 | 0.433 |
| COc1ccc(Cl)cc1NC(=O)CN(C)C(=O)C1CCN(C(=O)Nc2ccccc2)CC1 | -10.8 |
| CCN(CC)S(=O)(=O)c1ccc(C2=NOC3(C2)N(C)c2ccccc2C3(C)C)cc1 (centres unmarked) | 2.73 |
| Cc1nc2ccc3nc(NC(=O)c4ccco4)sc3c2s1 | -4.05 |
| COc1ccc(-c2nc(=S)n3ccsc3n2)cc1OC | 8.81 |
| O=C(Nc1ccc2c(c1)OCCO2)c1cccc(S(=O)(=O)N2CCCCC2)c1 | -2.76 |
| Cc1ccc(S(=O)(=O)N2CCOCC2)cc1NC(=O)CNCc1ccccn1.O=C(O)C(=O)O | 6.75 |
| CCC1CN(C(=O)Nc2ccc(C)cc2)c2cc(C)ccc2O1 (centres unmarked) | 11.2 |
| CC1=C(C(=O)OCc2ccccc2)C(c2ccccc2Cl)NC(=O)N1CCCCCC(=O)O (centres unmarked) | 10.4 |
| Cc1ccc(S(=O)(=O)NCC(=O)OCC(=O)c2cccs2)cc1 | 0.484 |
| Cc1nc(N2CCOCC2)c2oc3ccccc3c2n1 | 6.52 |
